From paper PMC4945875
These are yes or no findings as the source states them, for the method shown. For part of these data: Binding seen in cells or lysates may run through a third protein. Some binding calls cover weakened binding; strength is not graded here. For part of these data: Sequences can lack the tags named with a protein. Values belong to the molecule of their own block, whether it stands above or below them.

Tests used:
LPAATδ-tdTomato (human) = target: T1, LPAATδ-tdTomato (human) (UniProt Q9NRZ5); assay: FRET or BRET; FLIM-FRET in fixed COS7 cells co-transfected with donor E^0GFP–BARS and acceptor LPAATδ-tdTomato; donor lifetime in the Golgi area; steady state and VSVG traffic pulse (10 min after the 32 °C release)
T1 sequence: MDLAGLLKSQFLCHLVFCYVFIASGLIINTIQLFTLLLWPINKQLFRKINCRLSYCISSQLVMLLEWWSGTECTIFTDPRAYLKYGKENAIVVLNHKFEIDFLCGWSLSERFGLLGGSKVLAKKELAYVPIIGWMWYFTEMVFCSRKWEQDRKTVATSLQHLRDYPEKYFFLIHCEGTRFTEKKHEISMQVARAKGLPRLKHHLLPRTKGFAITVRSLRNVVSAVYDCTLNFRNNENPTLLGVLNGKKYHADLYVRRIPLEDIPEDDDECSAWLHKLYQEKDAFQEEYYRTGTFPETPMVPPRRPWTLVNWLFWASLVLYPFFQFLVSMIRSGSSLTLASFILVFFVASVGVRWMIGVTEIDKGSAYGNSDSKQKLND

GST-LPAATδ (full length) = target: T2, GST-LPAATδ (full length) (UniProt Q9NRZ5); assay: pull-down; GST pull-down: 3 μg His-BARS with 4 μg GST-LPAATδ full length or 3 μg GST-LPAATδ (aa 152–251), glutathione Sepharose; 50 mM Tris pH 8.0, 100 mM KCl, 0.2% Triton X-100, 4 °C; both purified
T2 sequence: T1 sequence

GST-LPAATδ (aa 152–251) = target: T3, GST-LPAATδ (aa 152–251) (UniProt Q9NRZ5); assay: as above
T3 sequence: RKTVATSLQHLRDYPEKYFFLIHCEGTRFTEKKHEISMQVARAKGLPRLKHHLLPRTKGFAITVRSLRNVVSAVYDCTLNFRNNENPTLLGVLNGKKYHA

LPAATδ–Flag (human) [1] = target: T4, LPAATδ–Flag (human) (UniProt Q9NRZ5); assay: co-IP; co-precipitation at steady state and during a traffic pulse (Supplementary Fig. 8); cells and constructs not given
T4 sequence: T1 sequence

LPAATδ–Flag (human) [2] = target: T4, LPAATδ–Flag (human); assay: co-IP; IP with anti-FLAG M2 affinity gel from lysate of HeLa cells co-transfected with BARS and LPAAT–Flag; 0.2% Triton X-100, 4 °C; western blot with anti-BARS
LPAATγ–Flag (human) = target: T5, LPAATγ–Flag (human) (UniProt Q9NRZ7); assay: as above
T5 sequence: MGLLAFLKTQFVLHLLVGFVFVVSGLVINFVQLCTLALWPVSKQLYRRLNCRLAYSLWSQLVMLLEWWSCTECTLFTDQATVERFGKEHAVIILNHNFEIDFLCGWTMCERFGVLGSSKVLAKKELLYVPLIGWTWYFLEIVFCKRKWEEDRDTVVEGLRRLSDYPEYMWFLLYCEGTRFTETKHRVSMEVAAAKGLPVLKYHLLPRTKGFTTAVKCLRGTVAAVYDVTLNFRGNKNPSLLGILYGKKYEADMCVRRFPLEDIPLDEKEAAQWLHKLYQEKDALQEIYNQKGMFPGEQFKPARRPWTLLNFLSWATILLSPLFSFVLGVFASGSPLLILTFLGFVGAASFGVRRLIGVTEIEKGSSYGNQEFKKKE

His-BARS = His-BARS (UniProt Q9Z2F5); assay: pull-down; histidine pull-down: His-BARS (20 μg, treated with buffer alone) with 1 mg lysate of LPAATδ–Flag expressing COS7 cells, Ni-NTA agarose, 4 °C; only the target purified
[3] = target: CtBP1-S/BARS (BARS-pCDNA3) (UniProt Q9Z2F5); assay: co-IP; IP with anti-BARS polyclonal antibody and protein A Sepharose from lysate of HeLa cells co-expressing BARS and LPAAT–Flag; 0.2% Triton X-100, 4 °C; western blot
[4] = target: CtBP1-S/BARS (BARS-pCDNA3) (UniProt Q9Z2F5); assay: co-IP; IP with anti-BARS polyclonal antibody from 0.8 mg COS7 lysate, with or without 160 μg purified EcLPAAT (2 h, 4 °C); 0.2% Triton X-100
[5] = target: CtBP1-S/BARS (BARS-pCDNA3) (UniProt Q9Z2F5); assay: co-IP; competition: 160 μg purified EcLPAAT added to 0.8 mg COS7 lysate before IP with anti-BARS polyclonal antibody; 0.2% Triton X-100, 4 °C; only the binder purified
GST-BARS [6] = target: GST-BARS (UniProt Q9Z2F5); assay: condition: only GST-BARS pre-treated with 120 μM BAC; pull-down; GST pull-down of EcLPAAT with GST-BARS (5 μg) first incubated with 120 μM HPLC-purified BAC for 3 h at 37 °C; both purified
GST-BARS [7] = target: GST-BARS (UniProt Q9Z2F5); assay: condition: only GST-BARS pre-treated with 100 μM NAD^+; pull-down; GST pull-down of EcLPAAT with GST-BARS (5 μg) first incubated with 100 μM NAD^+ for 1 h at room temperature; both purified
GST-BARS [8] = target: GST-BARS (UniProt Q9Z2F5); assay: pull-down; GST pull-down: 3 μg EcLPAAT with 5 μg GST-BARS, glutathione Sepharose; 20 mM Tris pH 8.0, 1 mM EDTA, 0.2% Triton X-100, 100 mM KCl, overnight, 4 °C; both purified

Molecule: E^0GFP–BARS (from UniProt Q9Z2F5 1-430)
- binding (LPAATδ-tdTomato (human)): binds

Molecule: His-BARS (from UniProt Q9Z2F5 1-430)
- binding (GST-LPAATδ (full length)): binds
- binding (GST-LPAATδ (aa 152–251)): binds

Molecule: CtBP1-S/BARS (BARS-pCDNA3) (from UniProt Q9Z2F5 1-430)
- binding (LPAATδ–Flag (human) [1]): binds
- binding (LPAATδ–Flag (human) [2]): binds
- binding (LPAATγ–Flag (human)): binds

B4: His-EcLPAAT (His-plsC) (enzyme, UniProt P26647 1-245)
chain: MLYIFRLIITVIYSILVCVFGSIYCLFSPRNPKHVATFGHMFGRLAPLFGLKVECRKPTDAESYGNAIYIANHQNNYDMVTASNIVQPPTVTVGKKSLLWIPFFGQLYWLTGNLLIDRNNRTKAHGTIAEVVNHFKKRRISIWMFPEGTRSRGRGLLPFKTGAFHAAIAAGVPIIPVCVSTTSNKINLNRLHNGLVIVEMLPPIDVSQYGKDQVRELAAHCRSIMEQKIAELDKEVAEREAAGKV
- binding [5]: binds
- binding (GST-BARS [6]): no binding
- binding (GST-BARS [7]): no binding
- binding (GST-BARS [8]): binds

Further lines, results first:

- binding (His-BARS): binds
- binding [3]: binds
- binding [4]: binds
B1: LPAATδ–Flag (enzyme, UniProt Q9NRZ5 1-378)
chain: T1 sequence

- binding [3]: binds
B2: LPAATγ–Flag (enzyme, UniProt Q9NRZ7 1-376)
chain: T5 sequence

- binding [3]: no binding
B3: LPAATη–Flag (enzyme, UniProt Q643R3 1-524)
chain: MSQGSPGDWAPLDPTPGPPASPNPFVHELHLSRLQRVKFCLLGALLAPIRVLLAFIVLFLLWPFAWLQVAGLSEEQLQEPITGWRKTVCHNGVLGLSRLLFFLLGFLRIRVRGQRASRLQAPVLVAAPHSTFFDPIVLLPCDLPKVVSRAENLSVPVIGALLRFNQAILVSRHDPASRRRVVEEVRRRATSGGKWPQVLFFPEGTCSNKKALLKFKPGAFIAGVPVQPVLIRYPNSLDTTSWAWRGPGVLKVLWLTASQPCSIVDVEFLPVYHPSPEESRDPTLYANNVQRVMAQALGIPATECEFVGSLPVIVVGRLKVALEPQLWELGKVLRKAGLSAGYVDAGAEPGRSRMISQEEFARQLQLSDPQTVAGAFGYFQQDTKGLVDFRDVALALAALDGGRSLEELTRLAFELFAEEQAEGPNRLLYKDGFSTILHLLLGSPHPAATALHAELCQAGSSQGLSLCQFQNFSLHDPLYGKLFSTYLRPPHTSRGTSQTPNASSPGNPTALANGTVQAPKQKGD
